In the antibiotic and cytotoxicity screens of Wong et al. (2023):
The other results are listed elsewhere or left out.

Tests used:
HSkMC = human skeletal muscle cells; test: cytotoxicity call (relative viability < 0.9); details: 10 µM
HepG2 = test: cytotoxicity call (relative viability < 0.9); details: 10 µM
S. aureus RN4220 = test: growth inhibition call (relative growth <= 0.2); details: 50 µM

## C[C@H]1CCCCO[C@H](CN(C)C(=O)Nc2cccc3ccccc23)[C@@H](C)CN([C@@H](C)CO)C(=O)c2cc(NS(=O)(=O)c3cccs3)ccc2O1
HSkMC
  cytotoxicity call: inactive
HepG2
  cytotoxicity call: active
S. aureus RN4220
  growth inhibition call: inactive

## CCC(Cc1c(I)cc(I)c(N)c1I)C(=O)O (stereo not drawn)
HSkMC
  cytotoxicity call: inactive
HepG2
  cytotoxicity call: inactive
S. aureus RN4220
  growth inhibition call: inactive

## C[C@@H]1CN([C@H](C)CO)C(=O)CCCn2nncc2CO[C@H]1CN(C)S(=O)(=O)c1cccc(C#N)c1
HSkMC
  cytotoxicity call: inactive
HepG2
  cytotoxicity call: inactive
S. aureus RN4220
  growth inhibition call: inactive

## C[C@@H]1CCCCO[C@@H](CN(C)CC2CC2)[C@H](C)CN([C@H](C)CO)C(=O)c2cc(NC(=O)C3CCCCC3)ccc2O1
HSkMC
  cytotoxicity call: inactive
HepG2
  cytotoxicity call: inactive
S. aureus RN4220
  growth inhibition call: inactive

## CN1CCN(C(=O)C[C@@H]2CC[C@@H]3[C@H](COc4ccc(NC(=O)c5cccs5)cc4C(=O)N3C)O2)CC1
HSkMC
  cytotoxicity call: inactive
HepG2
  cytotoxicity call: inactive
S. aureus RN4220
  growth inhibition call: inactive

## CC(=O)N(O)CCCCCNC(=O)CCC(=O)N(O)CCCCCNC(=O)CCC(=O)N(O)CCCCCN
HSkMC
  cytotoxicity call: inactive
HepG2
  cytotoxicity call: active
S. aureus RN4220
  growth inhibition call: inactive

## C[C@@H]1CN([C@H](C)CO)C(=O)c2ccccc2-c2ccccc2CO[C@H]1CN(C)C(=O)Nc1cccc(F)c1
HSkMC
  cytotoxicity call: inactive
HepG2
  cytotoxicity call: inactive
S. aureus RN4220
  growth inhibition call: inactive

## COc1ccc(S(=O)(=O)N(C)C[C@@H]2OCCCC[C@H](C)Oc3ccc(NC(=O)C4CCCCC4)cc3C(=O)N([C@H](C)CO)C[C@@H]2C)cc1
HSkMC
  cytotoxicity call: inactive
HepG2
  cytotoxicity call: inactive
S. aureus RN4220
  growth inhibition call: inactive

## COc1ccc(C#Cc2cnc3c(c2)C(=O)N([C@@H](C)CO)C[C@@H](C)[C@H](CN(C)C(=O)CC2CC2)O3)cc1
HSkMC
  cytotoxicity call: inactive
HepG2
  cytotoxicity call: inactive
S. aureus RN4220
  growth inhibition call: inactive

## C[C@H]1CN([C@@H](C)CO)C(=O)c2cccc(NC(=O)C3CCOCC3)c2O[C@@H]1CN(C)C(=O)Nc1ccc2c(c1)OCO2
HSkMC
  cytotoxicity call: inactive
HepG2
  cytotoxicity call: inactive
S. aureus RN4220
  growth inhibition call: inactive

## O=C(C[C@@H]1C[C@H]2c3cc(NC(=O)C4CCOCC4)ccc3O[C@H]2[C@H](CO)O1)NCCN1CCCCC1
HSkMC
  cytotoxicity call: inactive
HepG2
  cytotoxicity call: inactive
S. aureus RN4220
  growth inhibition call: inactive

## CN(C)Cc1nc2c([nH]1)c(=O)[nH]c(=O)n2C
HSkMC
  cytotoxicity call: inactive
HepG2
  cytotoxicity call: active
S. aureus RN4220
  growth inhibition call: inactive

## C=C1CCC(O)CC1=CC=C1CCCC2(C)C1CCC2C(C)C=CC(C)C(C)C (stereo not drawn)
HSkMC
  cytotoxicity call: inactive
HepG2
  cytotoxicity call: inactive
S. aureus RN4220
  growth inhibition call: inactive

## COc1ccccc1-c1ccc2c(c1)O[C@H](CN(C)C(=O)c1cccnc1)[C@H](C)CN([C@@H](C)CO)S2(=O)=O
HSkMC
  cytotoxicity call: inactive
HepG2
  cytotoxicity call: inactive
S. aureus RN4220
  growth inhibition call: inactive

## C[C@H]1ON(c2ccc(C(=O)OC(C)(C)C)cc2)[C@@H](c2ccc(O)cc2)[C@@H]1C(=O)N1C(=O)OC[C@@H]1c1ccccc1
HSkMC
  cytotoxicity call: inactive
HepG2
  cytotoxicity call: inactive
S. aureus RN4220
  growth inhibition call: inactive

## COc1ccc(CN(C)C[C@H]2OCCCC[C@@H](C)Oc3ccc(NS(=O)(=O)c4ccc(Cl)cc4)cc3C(=O)N([C@@H](C)CO)C[C@@H]2C)cc1
HSkMC
  cytotoxicity call: inactive
HepG2
  cytotoxicity call: inactive
S. aureus RN4220
  growth inhibition call: inactive

## C[C@@H](O)C#Cc1ccc2c(c1)O[C@@H](CN(C)C(=O)c1ccncc1)[C@@H](C)CN([C@@H](C)CO)S2(=O)=O
HSkMC
  cytotoxicity call: inactive
HepG2
  cytotoxicity call: inactive
S. aureus RN4220
  growth inhibition call: inactive

## CO[C@@H]1CN(C)C(=O)c2ccc(NC(C)=O)cc2OC[C@@H](C)N(S(=O)(=O)c2cn(C)cn2)C[C@H]1C
HSkMC
  cytotoxicity call: inactive
HepG2
  cytotoxicity call: inactive
S. aureus RN4220
  growth inhibition call: inactive

## C[C@@H]1CCCCO[C@H](CN(C)Cc2ccncc2)[C@@H](C)CN([C@H](C)CO)C(=O)c2cc(NC(=O)Nc3ccc(C(F)(F)F)cc3)ccc2O1
HSkMC
  cytotoxicity call: inactive
HepG2
  cytotoxicity call: inactive
S. aureus RN4220
  growth inhibition call: inactive

## C[C@@H]1CN([C@H](C)CO)C(=O)c2cccc(NC(=O)Nc3ccc(C(F)(F)F)cc3)c2O[C@@H]1CN(C)Cc1ccc(-c2ccccc2)cc1
HSkMC
  cytotoxicity call: active
HepG2
  cytotoxicity call: active
S. aureus RN4220
  growth inhibition call: inactive

## S=C1NCN(C2CCCC2)CN1
HSkMC
  cytotoxicity call: inactive
HepG2
  cytotoxicity call: inactive
S. aureus RN4220
  growth inhibition call: inactive

## Cc1ccc(OCc2nnn(CC(=O)NS(=O)(=O)c3c(C)nn(C)c3Cl)c2-c2ccccc2)cc1
HSkMC
  cytotoxicity call: inactive
HepG2
  cytotoxicity call: inactive
S. aureus RN4220
  growth inhibition call: inactive

## C[C@H](CO)N1C[C@H](C)[C@@H](CN(C)Cc2ccc(C(=O)O)cc2)OCCCC[C@H](C)Oc2ccc(NC(=O)Cc3ccccc3)cc2C1=O
HSkMC
  cytotoxicity call: inactive
HepG2
  cytotoxicity call: inactive
S. aureus RN4220
  growth inhibition call: inactive

## C[C@@H]1CCCCO[C@H](CN(C)C(=O)Nc2cccc3ccccc23)[C@@H](C)CN([C@H](C)CO)C(=O)c2cc(NC(=O)CCCCCC(=O)Nc3ccccc3N)ccc2O1
HSkMC
  cytotoxicity call: inactive
HepG2
  cytotoxicity call: inactive
S. aureus RN4220
  growth inhibition call: inactive

## CN(C)C(=O)N1C[C@@H]2COC[C@@]2(CN2CCOCC2)C1
HSkMC
  cytotoxicity call: inactive
HepG2
  cytotoxicity call: inactive
S. aureus RN4220
  growth inhibition call: inactive

## Cc1ccc(S(=O)(=O)N(C)C[C@H]2Oc3c(NC(=O)NC(C)C)cccc3C(=O)N([C@H](C)CO)C[C@H]2C)cc1
HSkMC
  cytotoxicity call: inactive
HepG2
  cytotoxicity call: inactive
S. aureus RN4220
  growth inhibition call: inactive
